# Screen size: about 52,000 compounds; about 1,700 (3.3%) were called active. No stated cut-off is given here; in the data, active means survival mostly below about 52% (no sharp cut-off); inactive means mostly above about 56%. Some of the results follow.
# System: Wild type
# Assay: growth inhibition of S. aureus wild type versus tarO mutant, primary screen, teichoic acid synthesis inhibitors, RN4220, OD600 (AID 463173)
# Conditions: S. aureus RN4220 wild type/DeltatarO growth, OD600, 18 h, stronger effect = lower value, screened at 18.75 µg/mL (by protocol)
row,Compound,survival
1,CNC(=O)c1cc(-c2ccc(OC)cc2)nc2ccccc12,inactive: 114%
2,Cc1cccc(Cc2c(C)nc3nc(SCC(=O)NCc4ccc(F)cc4)nn3c2C)c1,inactive: 61%
3,CCOc1cccc(OCCCn2c(-c3ccc(Br)cc3)nc3ccccc3c2=O)c1,inactive: 73%
4,COc1cccc(CNC(=O)c2ccc(NC(=O)N3CCCCc4ccccc43)cc2)c1OC,inactive: 73%
5,CC(=O)c1cccc(NC(=O)C(C)n2c(=O)cc(-c3ccccc3)c3c(C)nn(C)c32)c1 (centres undefined),inactive: 124%
6,CCOc1ccc(-c2cc(-c3nc(-c4ccc(C)cc4)no3)[nH]n2)cc1,inactive: 87%
7,CCN1C(=O)c2ccccc2S(=O)(=O)c2ccc(C(=O)NCc3ccccc3Cl)cc21,inactive: 142%
8,COC(=O)CSc1ncc2c(n1)-c1ccccc1N(Cc1cccc(F)c1)S2(=O)=O,inactive: 70%
9,Cc1cc(C(=O)C(=O)Nc2nnc(C(C)C)s2)c(C)n1-c1ccccc1,inactive: 101%
10,CCOC(=O)C1CCN(C(=O)CSc2n[nH]c(-c3ccc(F)cc3)n2)CC1,inactive: 90%
11,COc1cccc(CNC(=O)c2c(C)oc3nc(C)nc(N4CCOCC4)c23)c1,inactive: 73%
12,CCc1cccc(C)c1NS(=O)(=O)c1c(C)nc2sccn2c1=O,inactive: 71%
13,O=C(Cn1c(=O)oc2cc(S(=O)(=O)N3CCCC3)ccc21)NCc1ccc(F)cc1,inactive: 127%
14,CCN(CC)S(=O)(=O)c1ccc2c(c1)N(CC(=O)N1CCN(c3ccc(Cl)cc3)CC1)C(=O)CO2,inactive: 81%
15,O=C(NC1CCCCCC1)C1c2ccccc2C(=O)N1Cc1ccccc1Cl (centres undefined),inactive: 90%
16,Cc1cccc(C(=O)Nc2ccc(OCc3cc(=O)n4ccsc4n3)cc2)c1,inactive: 82%
17,CCOC(=O)c1c(-c2ccccc2)csc1NC(=O)c1cc(-c2ccc(C)c(F)c2)on1,inactive: 82%
18,O=C(Cn1ccc2cc(S(=O)(=O)N3CCCCCC3)ccc21)NCCc1ccc(Cl)cc1,inactive: 72%
19,CC(C)(C)C(=O)NC1CCN(S(C)(=O)=O)CC1,inactive: 94%
20,Cc1ccc(Cl)cc1N1CCN(C(=O)CCCCCn2c(=O)[nH]c3ccccc3c2=O)CC1,inactive: 68%
21,Cc1cc(C(=O)c2cccs2)c(N)s1,inactive: 90%
22,CCOc1ccccc1-c1nc(SCC(=O)c2ccc(OC)c(Br)c2)n[nH]1,inactive: 79%
23,CCc1ccc(NC(=O)C2CCCN(S(=O)(=O)c3c(C)noc3/C=C/N(C)C)C2)cc1 (centres undefined),inactive: 57%

row,Compound,survival
1,CCN1CCN(C(=O)c2ccc3c(c2)N(Cc2ccccc2F)C(=O)c2ccccc2S3=O)CC1 (centres undefined),inactive: 92%
2,O=C1N(CN2CCCCC2)c2ccccc2C12OCCCCO2,inactive: 95%
3,CC(C)OC(=O)c1cccnc1SCC(=O)Nc1ccc(C(F)(F)F)cc1Cl,inactive: 89%
4,O=c1c2sccc2n(Cc2cc(=O)n3ccccc3n2)c(=O)n1-c1cccc(C(F)(F)F)c1,inactive: 79%
5,Cc1cnc(=O)[nH]c1SCC(=O)Nc1nc2ccccc2s1,inactive: 89%
6,Cc1ccc2oc(-c3cccc(NC(=O)c4sc5c([N+](=O)[O-])cccc5c4Cl)c3)nc2c1,inactive: 62%
7,O=C(NCCCO)Nc1ccc(Cl)cc1,inactive: 109%
8,Cc1cc2c(cc3c(SCC(=O)Nc4cccc(Cl)c4C)nnc(C)n32)o1,inactive: 113%
9,Cc1ccc(-c2nnc(SCC(=O)NCc3ccccc3)nc2-c2ccc(C)cc2)cc1,inactive: 78%
10,COc1ccccc1N1CCN(C(=O)c2cnc(N3CCCCC3)c3ccccc23)CC1,inactive: 72%
11,CNS(=O)(=O)c1cc(-c2nnc(Nc3cc(C)ccc3C)c3ccccc23)ccc1C,inactive: 103%
12,Cc1cc(-c2ccc(C)c(S(=O)(=O)Nc3cccc(C#N)c3)c2)on1,inactive: 71%
13,COc1ccc(/C=C/C(=O)Nc2ccc(Cl)c(Cl)c2)cc1,inactive: 80%
14,CCOc1ccc(CCNC(=O)c2c(C)oc3ncn(C)c(=O)c23)cc1,inactive: 82%
15,O=C(COc1ccc(F)cc1)NCCc1nc2ccccc2[nH]1,inactive: 69%
16,CC(C)CCOc1ccccc1Cn1c(=O)sc2ccccc21,active: -1%
17,CCOC(=O)c1cc(-c2ccccc2)n(CCC(=O)Nc2nc3c(C)cccc3s2)c1C,inactive: 71%
18,Cc1ccc(Cl)cc1N1CCN(C(=O)c2ccc3nc(N4CCC(C)CC4)sc3c2)CC1,inactive: 16%
19,Cc1ccccc1NS(=O)(=O)c1ccc2[nH]c3c(c2c1)CCCCC3,inactive: 80%
20,Cn1c(=O)c2sccc2n2c(CCCC(=O)Nc3ccc(Oc4ccc(Cl)cc4)cc3)nnc12,inactive: 32%
21,N#CCCSc1nnc(-c2ccncc2)n1Cc1ccccc1,inactive: 105%
22,CCc1ccc(-n2c(=O)c3c(C)c(C(=O)N(C)C)sc3n(Cc3ccccc3F)c2=O)cc1,inactive: 73%
23,O=C(CN(C(=O)CSc1nc2ccccc2o1)c1cccc(F)c1)NC1CCCCC1,inactive: 101%

row,Compound,survival
1,CCOc1ccccc1CNC(=O)CCn1ccc2cc(S(=O)(=O)N3CCCCC3)ccc21,inactive: 133%
2,CC(=O)N1c2c(cc(Br)cc2S(=O)(=O)N2CCN(c3ccccc3)CC2)CC1C (centres undefined),inactive: 98%
3,Cc1ccc(-c2cc3c(N4CCN(c5cc(C)ccc5C)CC4)nccn3n2)cc1,inactive: 63%
4,Cc1oc(-c2ccccc2Cl)nc1CS(=O)CC(=O)NCc1ccccc1Cl (centres undefined),inactive: 66%
5,COc1ccc(NC(=O)CN2CCN(CC(=O)Nc3ccccc3F)CC2)cc1OC,inactive: 82%
6,O=C(N=Nc1c(O)[nH]c2ccccc12)C1CC1c1ccccc1 (centres undefined),inactive: 124%
7,O=C1CSC(=S)N1C1CCS(=O)(=O)C1 (centres undefined),inactive: 115%
8,CCOc1ccc(N2C(=O)CC(N3CCCCC3CC)C2=O)cc1 (centres undefined),inactive: 99%
9,CCOC(=O)c1ccc(NC(=O)COc2cccc3c(=O)n(C)ccc23)cc1,inactive: 55%
10,O=S(=O)(c1ccc(F)cc1)N(Cc1nc(-c2ccccc2)no1)C1CCCCC1,inactive: 84%
11,O=C(COc1ccc(F)cc1)Nc1ccc(C(=O)OCc2cc(=O)n3nc(C4CC4)sc3n2)cc1,inactive: 82%
12,CCOc1ccc(NC(=O)N2CCC(c3ccc(C)cc3)C2)cc1 (centres undefined),inactive: 53%
13,CCn1c(=O)/c(=C2/Sc3ccc(Cl)cc3N2C)s/c1=C1/C(=O)N(C)N=C1C,inactive: 89%
14,Cc1ccc(CN(Cc2cccn2-c2nnc(N3CCCC3=O)s2)C(=O)Nc2ccc(F)cc2)cc1,inactive: 121%
15,Cc1cc(Cl)ccc1OCC(=O)N1CCC(c2nc3ccccc3o2)CC1,inactive: 44%
16,COc1ccccc1CNC(=O)CSCc1nc(-c2ccc(OC)c(OC)c2)oc1C,inactive: 79%
17,COC(=O)c1ccc(NC(=O)C(=O)NCCc2csc(-c3ccc(C(F)(F)F)cc3)n2)cc1,inactive: 78%
18,CCOc1ccc(NC(=O)c2sc3nc4c(cc3c2N)CN(Cc2ccccc2)CC4)cc1,inactive: 87%
19,Cc1ccc(-n2nc(C(=O)Nc3ccc(Br)cc3C)c(=O)n(C)c2=O)cc1,inactive: 95%
20,Cc1ccc(Cn2ccnc2SCC(=O)Nc2ccccc2C(F)(F)F)cc1,inactive: 80%
21,COc1ccc(OC)c(NC(=O)CCn2cccn2)c1,inactive: 60%
22,COc1ccccc1CNC(=O)C1CCN(S(=O)(=O)c2ccc3[nH]c(=O)ccc3c2)CC1,inactive: 81%
23,CCOC(=O)c1ccccc1NC(=O)NCc1cccn1Cc1ccc(F)cc1,inactive: 84%

row,Compound,survival
1,CCC(=O)OC1CSc2nc3ccccc3n2C1 (centres undefined),inactive: 102%
2,COc1cc(OC)c(NC(=O)Cn2c(SCc3ccccc3F)nc3cccnc32)cc1Cl,inactive: 66%
3,O=C1CC(c2cccc(Cl)c2Cl)c2cc3c(cc2N1)OCCO3 (centres undefined),inactive: 107%
4,Cc1ccccc1Cn1nc(C)c(NC(=O)c2cc(CC(C)C)on2)c1C,inactive: 64%
5,CCOc1ccc(NC(=O)Cn2c(=O)n(Cc3ccco3)c(=O)c3ccc(C(=O)NC4CCCC4)cc32)cc1,inactive: 82%
6,CCc1nn(CC(=O)N2CCN(c3cccc(Cl)c3)CC2)c(=O)c2cc3sccc3n12,inactive: 124%
7,CCOc1ccc(NC(=O)Cn2nc(SC)c(S(=O)(=O)c3ccccc3)c2N)cc1,inactive: 79%
8,CC(=O)c1ccc(N2CCN(c3nc4ccccc4c4nc(-c5cccc(C)c5)nn34)CC2)cc1,inactive: 70%
9,CSc1nc(N)c(C#N)c(C(C)C)c1C#N,inactive: 111%
10,O=C(NCCCN1CCCCC1)c1[nH]c2ccccc2c1Sc1ccc(Cl)cc1,active: -1%
11,O=C(CCS(=O)(=O)c1nc(-c2cccs2)cc(C(F)(F)F)n1)Nc1ccc(F)c(Cl)c1,inactive: 78%
12,Cc1ccc(NC(=O)C2CCN(S(=O)(=O)c3ccc4c(c3)CCCN4C(=O)C3CCC3)CC2)cc1,inactive: 126%
13,Cc1cc(C)nc(NS(=O)(=O)c2ccc(NC(=O)c3nc(SC(C)C)ncc3Cl)cc2)n1,inactive: 79%
14,Cc1c(Cl)cccc1-n1ncc(C(=O)N2CCC(C)CC2)c1C1CCN(C(=O)OC(C)(C)C)CC1,inactive: 47%
15,NC(=O)C1CCN(C(=O)CSc2nc(O)cc(=O)[nH]2)CC1,inactive: 97%
16,CC(C)C(NS(=O)(=O)c1ccc2c(c1)oc(=O)n2C)C(=O)NCc1ccccc1 (centres undefined),inactive: 85%
17,CC(=O)c1ccc(N2CCN(C(=O)c3cc4c(s3)-c3ccccc3OC4)CC2)cc1,inactive: 87%
18,CN(C(=O)C1CCN(c2ncnc3c2nc2n3CCCCC2)CC1)c1ccccc1F,inactive: 60%
19,COc1ccc(NC(=O)CSc2nc(-c3ccccc3)[nH]c2-c2ccccc2)cc1OC,inactive: 69%
20,Cc1oc(-c2ccc(C(=O)NCc3ccccc3F)cc2)nc1COc1ccccc1,inactive: 85%

# — PubChem BioAssay AID463173 (ICCB-Longwood Screening Facility, Harvard Medical School, 2010)
